The subject of one assay is HSkMC. Briefly: cytotoxicity call (relative viability < 0.9). The note with it: 10 µM.
For another assay, the system named is HepG2. The experiment in a line: cytotoxicity call (relative viability < 0.9). The conditions noted are these: 10 µM.
A further assay concerns S. aureus RN4220. Briefly: growth inhibition call (relative growth <= 0.2). The conditions noted are these: 50 µM.

Some of the results follow.

Among the data in the antibiotic and cytotoxicity screens of Wong et al. (2023) are cytotoxicity call and growth inhibition call values, retold here.

Consider `C[C@@H]1CN([C@H](C)CO)C(=O)Cc2cc(NS(=O)(=O)c3cn(C)cn3)ccc2O[C@@H]1CN(C)Cc1ccc2c(c1)OCO2`, for which the cytotoxicity call in the assay with HSkMC and in the assay with HepG2 was “inactive” each time. Besides, in the assay on S. aureus RN4220, the growth inhibition call was “inactive”.

Regarding `C[C@H](CO)N1C[C@H](C)[C@@H](CN(C)Cc2ccc(C(F)(F)F)cc2)Oc2c(NC(=O)NC3CCCCC3)cccc2C1=O`, the cytotoxicity call in the assay on HSkMC and in the assay with HepG2 was “inactive” throughout. For the same compound, the growth inhibition call with S. aureus RN4220 is “inactive”.

Take `COc1ccc(S(=O)(=O)Nc2cccc3c2O[C@H](CN(C)Cc2ccc(Cl)c(Cl)c2)[C@H](C)CN([C@H](C)CO)C3=O)cc1`: the cytotoxicity call in the assay on HSkMC and in the assay on HepG2 was “inactive” each time. Further, the growth inhibition call in the assay on S. aureus RN4220 is “inactive”.

With `C[C@@H]1CN([C@H](C)CO)C(=O)Cc2cc(NC(=O)Cn3cnnn3)ccc2O[C@H]1CN(C)C(=O)Nc1ccc(F)cc1`, the cytotoxicity call in the assay on HSkMC and in the assay on HepG2 was “inactive” each time. Besides, the growth inhibition call in the assay on S. aureus RN4220 was “inactive”.

For `Cc1noc(C)c1NC(=O)Nc1ccc2c(c1)C(=O)N([C@@H](C)CO)C[C@@H](C)[C@@H](CN(C)Cc1ccc3c(c1)OCO3)OCCCC[C@@H](C)O2`, the cytotoxicity call in the assay with HSkMC and in the assay on HepG2 was “inactive” each time. Moreover, in the assay with S. aureus RN4220, the growth inhibition call is “inactive”.

Consider `C=CCOC[C@H](O)Cn1c(N2CCOCC2)nc2c1c(=O)n(C)c(=O)n2C`, for which the cytotoxicity call in the assay on HSkMC and in the assay with HepG2 was “inactive” each time. Besides, the growth inhibition call in the assay on S. aureus RN4220 is “inactive”.

As for `Cc1noc(C)c1S(=O)(=O)Nc1ccc2c(c1)C(=O)N([C@@H](C)CO)C[C@@H](C)[C@@H](CN(C)S(=O)(=O)c1c(C)noc1C)O2`, the cytotoxicity call with HSkMC and with HepG2 was “inactive” throughout. In addition, in the assay with S. aureus RN4220, the growth inhibition call was “inactive”.

For `Cc1nccn1CCC(=O)O`, the cytotoxicity call in the assay on HSkMC and in the assay with HepG2 was “inactive” throughout. In the assay on S. aureus RN4220, the growth inhibition call was “inactive”.

Turning to `C[C@H](CO)N1C[C@H](C)[C@@H](CN(C)C(=O)Nc2ccc(F)cc2)Oc2ccc(NS(C)(=O)=O)cc2CC1=O`, the cytotoxicity call in the assay with HSkMC and with HepG2 was “inactive” in each case. Moreover, the growth inhibition call in the assay with S. aureus RN4220 is “inactive”.

For the compound `C[C@H]1CN([C@@H](C)CO)C(=O)Cc2cc(NC(=O)C3CCCCC3)ccc2O[C@H]1CN(C)Cc1ccc(C(=O)Nc2ccccc2N)cc1`, the cytotoxicity call in the assay on HSkMC and with HepG2 was “inactive” in each case. Besides, in the assay on S. aureus RN4220, the growth inhibition call was “inactive”.

As to `C[C@H](CO)N1C[C@H](C)[C@H](CN(C)CC2CC2)Oc2ccc(NS(=O)(=O)c3cccs3)cc2C1=O`, the cytotoxicity call in the assay with HSkMC and with HepG2 was “inactive” throughout. Besides, the growth inhibition call in the assay on S. aureus RN4220 was “inactive”.

On to `N#Cc1cc(F)c(N)c2[nH]cc(S(=O)(=O)c3ccc(NC(=O)c4cc(S(N)(=O)=O)cs4)cn3)c12`, for which the cytotoxicity call in the assay on HSkMC and with HepG2 was “inactive” throughout. In addition, the growth inhibition call in the assay on S. aureus RN4220 was “inactive”.

Consider `CC(C)CC#Cc1cnc2c(c1)C(=O)N([C@@H](C)CO)C[C@H](C)[C@@H](CN(C)C(=O)CN1CCOCC1)O2`, for which the cytotoxicity call in the assay with HSkMC and with HepG2 was “inactive” in each case. Besides, the growth inhibition call with S. aureus RN4220 is “inactive”.

In the case of `C[C@H](CO)N1C[C@H](C)[C@@H](CN(C)Cc2ccc(C(F)(F)F)cc2)OCCCC[C@H](C)Oc2ccc(NC(=O)Nc3ccccc3)cc2C1=O`, the cytotoxicity call in the assay with HSkMC was “inactive”. Besides, the cytotoxicity call with HepG2 is “active”. Besides, in the assay on S. aureus RN4220, the growth inhibition call was “inactive”.

On to `COCC#Cc1cnc2c(c1)C(=O)N([C@@H](C)CO)C[C@@H](C)[C@H](CN(C)S(=O)(=O)c1cn(C)cn1)O2`, for which the cytotoxicity call in the assay with HSkMC and in the assay with HepG2 was “inactive” in each case. Moreover, in the assay with S. aureus RN4220, the growth inhibition call was “inactive”.

Regarding `O=C(C[C@@H]1CC[C@@H](NS(=O)(=O)c2ccc(F)cc2)[C@@H](CO)O1)N1CCC(Cc2ccccc2)CC1`, the cytotoxicity call with HSkMC and with HepG2 was “inactive” in each case. Further, the growth inhibition call with S. aureus RN4220 is “inactive”.

On to `COc1ccc(CN(c2ncns2)S(=O)(=O)c2ccc(Oc3c(F)cc(F)cc3-c3ccnn3C)c(C#N)c2)c(OC)c1`, for which the cytotoxicity call with HSkMC and with HepG2 was “inactive” each time. The growth inhibition call in the assay on S. aureus RN4220 was “inactive”.

On to `Cc1ccc(S(=O)(=O)Nc2ccc3c(c2)C(=O)N([C@@H](C)CO)C[C@H](C)[C@@H](CN(C)C(=O)Nc2ccc4c(c2)OCO4)OCCCC[C@@H](C)O3)cc1`, for which the cytotoxicity call with HSkMC and in the assay on HepG2 was “inactive” throughout. In the assay with S. aureus RN4220, the growth inhibition call was “inactive”.

As for `CC1(C)CO[C@@H](CC(=O)O)CN1`, the cytotoxicity call in the assay with HSkMC and in the assay with HepG2 was “inactive” throughout. In addition, in the assay with S. aureus RN4220, the growth inhibition call was “inactive”.

On to `CC(=O)O[C@H]1C[C@@]2(C)[C@H]3CC=C4[C@@H](C[C@@H](O[C@H]5O[C@@H](CO)[C@@H](O)[C@@H](O)[C@@H]5O)[C@@H](O)C4(C)C)[C@@]3(C)CC[C@@]2(C)[C@@H]1C(C)(O)C(=O)CCC(C)(C)O` (stereo not given in full), for which the cytotoxicity call with HSkMC and in the assay on HepG2 was “inactive” each time. Also, in the assay on S. aureus RN4220, the growth inhibition call is “inactive”.

On to `CO[C@@H]1CN(C)C(=O)c2cc(NS(C)(=O)=O)ccc2OC[C@@H](C)N(C(=O)c2ccc3c(c2)OCO3)C[C@H]1C`, for which the cytotoxicity call in the assay on HSkMC and with HepG2 was “inactive” each time. For the same compound, the growth inhibition call in the assay on S. aureus RN4220 was “inactive”.

In the case of `CN1C(=O)c2cc(NC(=O)c3cnccn3)ccc2OC[C@@H]2O[C@@H](CC(=O)N[C@@H]3CCN(Cc4ccccc4)C3)CC[C@H]21`, the cytotoxicity call in the assay on HSkMC and in the assay on HepG2 was “inactive” in each case. The growth inhibition call in the assay with S. aureus RN4220 is “inactive”.

As for `COc1ccc(S(=O)(=O)N(C)C[C@H]2Oc3c(NS(=O)(=O)c4ccc(F)cc4)cccc3C(=O)N([C@@H](C)CO)C[C@H]2C)cc1`, the cytotoxicity call in the assay on HSkMC (human skeletal muscle cells) and in the assay on HepG2 was “inactive” throughout. The growth inhibition call in the assay on S. aureus RN4220 was “inactive”.

In the case of `C[C@@H]1CN([C@H](C)CO)C(=O)c2cc(NC(=O)CCCN(C)C)ccc2O[C@@H]1CN(C)Cc1ccc2c(c1)OCO2`, the cytotoxicity call with HSkMC and in the assay on HepG2 was “inactive” in each case. The growth inhibition call in the assay on S. aureus RN4220 is “inactive”.

Regarding `C[C@H]1CCCCO[C@H](CN(C)C(=O)NC2CCCCC2)[C@@H](C)CN([C@@H](C)CO)C(=O)c2cc(NS(=O)(=O)c3ccc(F)cc3)ccc2O1`, the cytotoxicity call in the assay with HSkMC and with HepG2 was “inactive” in each case. In addition, in the assay on S. aureus RN4220, the growth inhibition call is “inactive”.
